{"source": "PubChem BioAssay AID894", "about": "(National Center for Advancing Translational Sciences (NCATS), 2007)", "note": "Out of some 150,000 compounds screened, about 6,500 (4.3%) were called active. This list was built around the results that the source calls inconclusive (neither active nor inactive); the mix of calls is not that of the screen. Calls follow the shape of the dose curve; as a rule, active = well fitted inhibition curve with a large enough effect (not every such curve was filed as active); inconclusive = small, poorly fitted or top-dose-only effect, or another doubt; inactive = no such curve, though single readings can be large or run the other way. No potency is given beside an inconclusive call; the fits are too rough. % is scaled to controls: 0 for no effect and ±100 for the full control effect; potency is read from the fitted curve at half-maximal effect; tags tell the direction and shape of the fitted curve.", "data": [{"biological_target": "15-hydroxyprostaglandin dehydrogenase [NAD(+)] (Homo sapiens) (UniProt P15428)", "sequence (P15428 whole entry, looked up)": "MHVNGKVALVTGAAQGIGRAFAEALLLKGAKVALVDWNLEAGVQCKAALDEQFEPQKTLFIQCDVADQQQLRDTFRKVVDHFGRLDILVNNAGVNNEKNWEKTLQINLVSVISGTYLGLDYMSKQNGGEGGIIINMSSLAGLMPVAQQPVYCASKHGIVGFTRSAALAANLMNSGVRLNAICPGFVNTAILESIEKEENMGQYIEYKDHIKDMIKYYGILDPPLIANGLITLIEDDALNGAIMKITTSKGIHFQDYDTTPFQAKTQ", "assay": "qHTS Assay for Inhibitors of HPGD (15-Hydroxyprostaglandin Dehydrogenase)", "conditions": "purified HPGD, NADH fluorescence kinetic, PGE2 substrate; activity change, negative = inhibition: active compounds read low", "summary_of_the_method": "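NADH formation kinetics: reaction with 30 uM PGE2 and 1 mM NAD+ (final), 20 nM enzyme, Tris-HCl pH 8 with Tween 20, after 15 min compound preincubation at room temperature. Fluorescence change, last versus first of five reads.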", "values": [{"smiles": "O=C(c1ccco1)N1CCN(c2nc(C3CC3)nc3c2nnn3Cc2ccccc2Cl)CC1", "Potency": "inconclusive [inhibitor, single point]"}, {"smiles": "COCCCn1c(=N)c(C(=O)NC2CCCCC2)cc2c(=O)n3ccccc3nc21", "Potency": "inconclusive [inhibitor, partial curve]"}, {"smiles": "CN1CCN(c2ncc3nc(-c4cccs4)c(=O)n(C[C@H]4CCCO4)c3n2)CC1", "Potency": "inconclusive [inhibitor, partial curve]"}, {"smiles": "CCc1c2c(nc3cccc(C(C)C)c13)-c1cccc(=O)n1C2", "Potency": "inconclusive [inhibitor, partial curve]"}, {"smiles": "Oc1ccccc1C(Sc1nc2ccccc2s1)Sc1nc2ccccc2s1", "Potency": "active: 3.98 µM"}, {"smiles": "COc1ccc2nc(SCC(=O)O)nc(C)c2c1", "Potency": "inconclusive [inhibitor, partial curve]"}, {"smiles": "Cc1nc2scc(-c3cccs3)c2c(=O)[nH]1", "Potency": "active: 22.4 µM"}, {"smiles": "CN(C)CCN1C(=O)C(O)=C(C(=O)c2cc3ccccc3o2)C1c1ccc(N(C)C)cc1", "note": "(centres undefined)", "activity change, negative = inhibition": "inactive: -11.6%"}, {"smiles": "COc1cc(=O)n(C)c2cc(N(C)C)ccc12", "Potency": "inconclusive [inhibitor, partial curve]"}, {"smiles": "COc1ccc(-c2cc(=O)c3ccccc3o2)cc1", "Potency": "inconclusive [inhibitor, partial curve]"}, {"smiles": "Cc1ccc(S(=O)(=O)N2CCCN(c3nc4cc(C)ccc4cc3C#N)CC2)cc1", "Potency": "inconclusive [inhibitor, partial curve]"}, {"smiles": "CC(=O)Nc1cccc2c1C(=O)NC2=O", "Potency": "inconclusive [inhibitor, partial curve]"}, {"smiles": "c1c2c(cc3sc(N4CCCCC4)nc13)OCCO2", "Potency": "active: 25.1 µM"}, {"smiles": "CC(C)N(C#N)c1nc(N2CCOCC2)nc(N2CCOCC2)n1", "Potency": "inconclusive [inhibitor, single point]"}, {"smiles": "CCOC(=O)c1sc2nc(CC(C)C)c3c(c2c1N)CCC3", "Potency": "inconclusive [inhibitor, partial curve]"}, {"smiles": "CCC(C)(C)n1nnnc1C(c1ccc(O)c(OC)c1)N1CCc2ccccc2C1", "note": "(centres undefined)", "Potency": "inconclusive [inhibitor, single point]"}, {"smiles": "Cc1ccc(S(=O)(=O)N/N=C/c2cccc([N+](=O)[O-])c2)cc1", "activity change, negative = inhibition": "inactive: -3.41%"}, {"smiles": "O=C(Nc1cccc(-c2nnc(-c3ccccc3)o2)c1)C1CCCO1", "note": "(centres undefined)", "Potency": "inconclusive [inhibitor, partial curve]"}, {"smiles": "COc1ccc2c(c1OC)C(Cc1ccccc1)N1CCc3cc4c(cc3C1=C2)OCO4", "note": "(centres undefined)", "Potency": "inconclusive [inhibitor, partial curve]"}, {"smiles": "CC(=O)NS(=O)(=O)c1ccc(NC(=O)C2C3C=CC(C3)C2C(=O)O)cc1", "note": "(centres undefined)", "activity change, negative = inhibition": "inactive: -3.59%"}, {"smiles": "Cc1cc(/C=C2\\SC(=S)NC2=O)c(C)n1C1CC1", "Potency": "inconclusive [inhibitor, single point]"}, {"smiles": "CCn1c(=O)c2[nH]c(-c3ccccc3)nc2n(CC)c1=O", "Potency": "inconclusive [inhibitor, single point]"}, {"smiles": "CCOC(=O)c1[nH]c2ccc(OC)cc2c1C", "Potency": "inconclusive [inhibitor, partial curve]"}, {"smiles": "CCOC(=O)c1c(NC(=O)c2cccnc2)sc(C(C)=O)c1C", "Potency": "active: 12.6 µM"}, {"smiles": "Cc1cc(-c2ccc(N=Nc3ccc4c(S(=O)(=O)O)cc(S(=O)(=O)O)c(N)c4c3O)c(C)c2)ccc1N=Nc1ccc2c(S(=O)(=O)O)cc(S(=O)(=O)O)c(N)c2c1O", "Potency": "active: 5.01 µM"}, {"smiles": "CCCNc1nc(-c2ccccc2)c(C(=O)OCC)cc1C#N", "Potency": "inconclusive [inhibitor, single point]"}, {"smiles": "Cc1cc(NC(=O)CSc2nnc(-c3ccc(Cl)s3)o2)no1", "Potency": "inconclusive [inhibitor, single point]"}, {"smiles": "Cc1cc(NS(=O)(=O)c2ccc(NC(=S)NC(=O)c3ccc(Br)cc3)cc2)no1", "activity change, negative = inhibition": "inactive: -14.4%"}, {"smiles": "O=C(CSc1nc2cc(Cl)ccc2s1)N1CCCc2ccccc21", "Potency": "inconclusive [inhibitor, partial curve]"}, {"smiles": "Fc1cccc(F)c1CSc1nc2ccccc2[nH]1", "activity change, negative = inhibition": "inactive: -4.77%"}, {"smiles": "CN1c2cccc3cccc(c23)N(C)C1c1cccs1", "Potency": "inconclusive [inhibitor, partial curve]"}, {"smiles": "c1ccc2[nH]c3cc4ncnc4cc3nc2c1", "activity change, negative = inhibition": "inactive: -12%"}, {"smiles": "Cc1ccc(C)c(-n2c(-c3ccc4c(c3)OCO4)n[nH]c2=S)c1", "Potency": "inconclusive [inhibitor, partial curve]"}, {"smiles": "Cc1cccc(-c2nnc(-c3ccc(N)cc3)o2)c1", "Potency": "inconclusive [inhibitor, full curve]"}, {"smiles": "CCOc1ccc2nc(NCCCNS(=O)(=O)c3ccc(C)cc3)c(C#N)cc2c1", "Potency": "inconclusive [inhibitor, single point]"}, {"smiles": "CC(=O)NCCNc1ncnc2ccc(-c3ccc(C(=O)N(C)C)cc3)cc12", "Potency": "inconclusive [inhibitor, partial curve]"}, {"smiles": "Cc1ccc(C2CC(=O)c3cnc(N4CCN(c5ccccc5)CC4)nc3C2)cc1", "note": "(centres undefined)", "Potency": "inconclusive [inhibitor, partial curve]"}, {"smiles": "Cc1ccc(-n2c(C)cc(/C=C(\\C#N)C(=O)NCC3CCCO3)c2C)cc1", "note": "(centres undefined)", "Potency": "inconclusive [inhibitor, partial curve]"}, {"smiles": "O=C(CSc1n[nH]c(-c2ccccc2)n1)NC(=O)NCc1ccco1", "Potency": "active: 14.1 µM"}, {"smiles": "CCOC(=O)c1sc2nc(C(C)C)c3c(c2c1N)CC(C)(C)OC3", "Potency": "inconclusive [inhibitor, partial curve]"}, {"smiles": "Cc1cc(C=C2C(=O)c3ccccc3C2=O)c(C)n1-c1ccccc1", "activity change, negative = inhibition": "inactive: -16.6%"}, {"smiles": "CCOc1cc(/C=C2\\C(=O)N(c3ccc(C(N)=O)cc3)N=C2C)ccc1OC(=O)c1cccs1", "Potency": "active: 7.08 µM"}, {"smiles": "CC(=O)Nc1cccc(NC(=O)CSc2nc(C)c(C)c(C)c2C#N)c1", "Potency": "inconclusive [inhibitor, single point]"}, {"smiles": "Cc1nc2ccccc2c2nc(N)nn12", "activity change, negative = inhibition": "inactive: -25.9%"}]}]}
